Laboratory results as given in the supplement of paper PMC12632987.
Over roughly 1,800 sequences, “median log2 fold change of GCK-ALFA target abundance (FLAG IP / Myc IP barcode read proportion)” has its median near 0.14; the lowest 2% begin near -0.84. The list shows a part of the results.

T1: TRAF2, Q12933
T1 chain: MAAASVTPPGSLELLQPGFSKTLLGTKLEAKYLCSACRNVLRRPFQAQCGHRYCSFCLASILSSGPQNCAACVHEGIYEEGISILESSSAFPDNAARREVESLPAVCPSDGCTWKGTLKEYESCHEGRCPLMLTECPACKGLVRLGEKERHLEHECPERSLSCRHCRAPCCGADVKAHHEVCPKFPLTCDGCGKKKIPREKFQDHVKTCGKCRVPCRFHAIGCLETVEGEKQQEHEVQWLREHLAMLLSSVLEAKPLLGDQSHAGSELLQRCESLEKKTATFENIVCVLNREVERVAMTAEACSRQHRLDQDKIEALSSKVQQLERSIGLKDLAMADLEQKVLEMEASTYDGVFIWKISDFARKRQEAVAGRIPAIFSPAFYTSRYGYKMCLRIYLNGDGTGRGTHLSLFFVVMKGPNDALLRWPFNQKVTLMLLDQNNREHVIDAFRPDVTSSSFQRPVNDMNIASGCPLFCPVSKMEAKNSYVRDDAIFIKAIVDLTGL

B1: traf2_out_13_95_1105 (protein)
chain: SAETAEKIMEVADEMLEKSEKLLEELLKIAKEKGKLVEEVQEALDLARYRSINEAIHKLKELAKKYPEFKEEFEATIKELEELKREAGRKVAEILKEEKE
B2: traf2_out_20_38_2028 (protein)
chain: SEEEEEKKRLEELIKVANEAYDKAEKKIAKLKAEGKTIEEIAEEAKEEVERILSEVGLEEEREELIEDIDRVLDSPDAERLIARILARAVALAYQKELQK
B3: traf2_out_17_162_1497 (protein)
chain: AETEERLRELEEELRELEEELEKLREKLPDLPKMSKEELTDLLVEVSELKRRARLLAEELRRLAEETGSPRAEELLRRAEELAEEAQRIANEIYKELEAK
B4: traf2_out_16_104_1418 (protein)
chain: SAAADAEFDALIAEAEAIADELGKLANELYKMLEKASPADKEKLSDQLVAASEARRAALALAEELRRARAAGGDLAAARAALAKLKADAAAVKAAAAALK
B5: traf2_out_20_3_2145 (protein)
chain: EELEKELKKELEKALKILEEAAKLADKETAKKLKELAKKLEESKELSYSDQLVVVSEVRREVLELADKAKAAGKEELAKKLEEAAEALNRAANLLYKIIE
B6: traf2_out_18_3_1901 (protein)
chain: KEEERKRLSEEIDEIVDEAEAYARRVLDRLAAERPEVAAELDRLRAVLEAGGGAFGVLEELAELARRLGLEELAEEIEEFLREKRRRFQELVDRYEELIK
B7: traf2_out_17_162_1534 (protein)
chain: SETEEKLKKLKEKLKEIEKRLEELEKKSKELEKKSKEELTDLLVEASELRREALKLAEELKKLAKETGSEEAKKLAEKAEEVAERLQRIANEIYKELEKK
B8: traf2_out_11_169_863 (protein)
chain: EQKKFNRELIDFALEVNDEAKEKLKKFALELAKEEGLDVEEVKKIFEENKNKSLSAIASALIKYFESKGKKEAAEKILEKYDELKEEINKKVSAKMKELK
B9: traf2_out_20_3_2056 (protein)
chain: SELEEEIEKLEKELEAKLKELEKLLPPEEAKELKEAWKKVKEAKKEGLEEYLIAVSELRRLLLELSERARARGDEETAKLLEEAAELAGRIAHLIYLKIE
B10: traf2_out_16_104_1422 (protein)
chain: SEEKEKEFEEIIERLEEIAERAQRIANELMKLYEKASPEKRTALSDALVKASELRREALEAAQQAKEDKENGGDLEERRKRLEELEKRLEELEKELEELK
B11: traf2_out_5_63_2359 (protein)
chain: SEREELTALARRADKLVRELLAAAKAGDEERVEALLEEAVADPELARLVLGILKGEAKYYELLGDKPEEAKIAKELAERLEARMAARAAEAAAAAAAAAA
B12: traf2_out_17_178_1690 (protein)
chain: SKEEYRKKISEATDELIDLTVATGTALLAAARAAGTVSPEELAALEAARRAGSNRTFRALAERIVPKLPSAAAAAARLAAFDAEAAALNKEIAEAYEKYE
B13: traf2_out_17_162_1561 (protein)
chain: SPLEEEWEELLRRLEELERRVEELEKRLENLENLSPEEIRDLLVEASEVKREALELAERARELRPEIGEEEAEELIERAEEIAERAQRIANKLYEALLKK
B14: traf2_out_20_38_2033 (protein)
chain: SEEEEEKRRLEEAIEVANEAYDKYSARVAAWKAAGKTVEEIAEEAKEEVRRLLTEAGLEEEAEILIEDIDRALSSPEAERLIVRILARAEALVYQKKVNE
B15: traf2_out_19_16_1986 (protein)
chain: AEEEAQKLIEEMKAYMDKALDLAKESVANLDKLSREELSDKLVEISELMRKAQEALQKALELLKDDPERRAELQAEFDAKRDEINRLMTIIVNKLEELLK
B16: traf2_out_16_104_1399 (protein)
chain: SAAKQARFDAIIAELEAIAEELQRIANEIYELYLKADPETKVKLSDLLVEASEARRFALEAAEQARRDRETGGDLAEAEARLAEARKRAERVRKEAEALK
B17: traf2_out_12_148_939 (protein)
chain: SNKEKAEELRELLRERAARLRAAAQALSPEVQALVAAETDRLLDAADIVADFSLEDLLSAIRTRLEAFAHLLSQHPEAAPLVAAVRAFAAEVEEKAKELA
B18: traf2_out_19_16_1980 (protein)
chain: KEEELKKLEKELEEIKKRVEELEKYFEENKDTLTREELSDLLVEVSELKRRALEILQKLKELKDVDPERVEKLEKEAEEVIERAQRLANELVERYEELLK
B19: traf2_out_14_166_1277 (protein)
chain: MTPEEIERIRKIVDELEPLTDAAVARARAILDKVRDKLSPEDLARVEALLALAARNIGSSAINALREIAKIYKKAGLDEAAAAMQALADELEEKLKKLNK

Target: T1, TRAF2, Q12933
Assay: median log2 fold change of GCK-ALFA target abundance (FLAG IP / Myc IP barcode read proportion) (log2 ratio); each designed protein is fused to an ALFA-tag nanobody in HEK293 cells to bring the named protein to FLAG-tagged glucokinase (GCK); Myc marks an untargeted standard; higher = target protein stabilised (more abundant)
Details: target protein: 3xFLAG-MCP-GCK-ALFA reporter; HEK293 landing pad (RPLP)
How it was run: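 Sequencing of reverse-transcribed, amplified circular RNA barcodes from anti-FLAG and anti-Myc immunoprecipitates provided the readout for an ALFA-nanobody-fused binder library recombined into HEK293 landing-pad cells. Those cells were induced with 2 μg mL^−1 doxycycline, transfected with a plasmid expressing a FLAG-tagged target and a Myc-tagged standard, and lysed after 48 h. Target abundance is the per-binder median log2 ratio of FLAG to Myc barcode read proportions. Only barcodes at a proportion of ≥10^−7 in both replicates and binders with ≥3 barcodes per replicate were kept, with a 10^−6 pseudocount added before the two replicates were pooled.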

Binder | median log2 fold change
B1 | -0.477
B2 | -0.966
B3 | 0.216
B4 | 0.0232
B5 | 0.132
B6 | 0.308
B7 | 0.0675
B8 | -0.614
B9 | 0.426
B10 | 0.0771
B11 | -0.398
B12 | 0.173
B13 | 0.205
B14 | -0.971
B15 | 0.445
B16 | -0.0653
B17 | 0.268
B18 | 0.116
B19 | 0.354
